# Assay results from PubChem BioAssay AID488969 (Vanderbilt High Throughput Screening Facility, 2010).
# The full ranking holds about 110,000 compounds; the median of “z-score” is about -0.1, and the highest 2% start at about 2. The list shows a part of the results. Calls of active or inactive are those of the source.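 The calls were made as follows: active = z-score in the third read window above 3 or below -3; inactive = the rest.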
# Biological target: Metabotropic glutamate receptor 8 (Rattus norvegicus) (UniProt P70579)
# Sequence of UniProt P70579 (P70579 whole entry, looked up): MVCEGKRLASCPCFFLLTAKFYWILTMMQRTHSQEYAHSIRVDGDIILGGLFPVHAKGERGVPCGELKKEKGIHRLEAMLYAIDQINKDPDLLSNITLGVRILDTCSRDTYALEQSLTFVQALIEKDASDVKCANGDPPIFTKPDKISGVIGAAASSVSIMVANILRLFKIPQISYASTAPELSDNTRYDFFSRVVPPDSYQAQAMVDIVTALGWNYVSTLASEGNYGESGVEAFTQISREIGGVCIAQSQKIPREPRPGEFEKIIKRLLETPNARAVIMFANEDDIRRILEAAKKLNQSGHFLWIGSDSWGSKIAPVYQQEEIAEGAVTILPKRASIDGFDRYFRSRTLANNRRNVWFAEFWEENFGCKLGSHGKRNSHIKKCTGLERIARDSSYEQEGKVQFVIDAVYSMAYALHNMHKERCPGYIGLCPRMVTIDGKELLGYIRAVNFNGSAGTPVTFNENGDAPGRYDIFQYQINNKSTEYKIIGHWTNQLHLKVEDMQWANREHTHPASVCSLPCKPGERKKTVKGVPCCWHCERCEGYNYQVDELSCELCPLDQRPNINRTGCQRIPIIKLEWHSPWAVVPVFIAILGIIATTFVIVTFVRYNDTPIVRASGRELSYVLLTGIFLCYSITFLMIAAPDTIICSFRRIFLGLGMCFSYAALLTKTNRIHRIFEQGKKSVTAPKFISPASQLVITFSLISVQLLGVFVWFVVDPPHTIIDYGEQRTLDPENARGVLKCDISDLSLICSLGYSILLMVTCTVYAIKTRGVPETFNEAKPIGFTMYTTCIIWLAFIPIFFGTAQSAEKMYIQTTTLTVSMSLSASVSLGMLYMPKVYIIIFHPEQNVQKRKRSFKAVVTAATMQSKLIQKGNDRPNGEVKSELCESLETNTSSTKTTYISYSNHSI
# Assay: mGluR8 Gi/Go-coupled signaling modulation – cell-based, rat, thallium flux, HTS, primary screen (AID 488969)
# Details: HEK293 rat mGluR8, GIRK (G protein-gated inwardly rectifying potassium channel) thallium flux, FluoZin2; at 10 µM; stronger effect = higher value; submaximal glutamate (EC20) added with thallium
row,SMILES,z-score
1,CCC(=O)N1CCCc2cc(S(=O)(=O)N3CCN(c4ccccc4F)CC3)ccc21,-1.13
2,COc1ccc(S(=O)(=O)N2CCN(Cc3ccc4c(c3)OCO4)CC2)c2ccccc12,-0.431
3,CC(=O)c1c(C)[nH]c(C(=O)COc2cc(C)cc(C)c2)c1C,active: 4
4,COc1cc(NC(=O)C2CCCN(S(=O)(=O)c3cnc[nH]3)C2)cc(OC)c1 (centres undefined),-0.0378
5,CCOC(=O)c1nnn(-c2nonc2N)c1CN(C)C1CCCCC1,1.29
6,CCOC(=O)c1cn(CC)c2cc(N3CCCCC3)c(F)cc2c1=O,-0.264
7,COc1cc(/C=N/NC(N)=O)cc(Br)c1OCc1ccc(C)cc1,-0.00475
8,c1ccc2oc(Cc3ccc(Cc4nc5ccccc5o4)cc3)nc2c1,0.0437
9,Cn1c(OCc2ccco2)nc2c1c(=O)n(Cc1ccc(Cl)c(Cl)c1)c(=O)n2C,-0.716
10,Cc1cc(NC(=O)CCN2C(=O)C3C4C=CC(C4)C3C2=O)c2ccccc2n1 (centres undefined),-0.214
11,O=C(O)CCCCCN1C(=O)CCC1=O,0.242
12,CCn1c(SCc2nc(CC(=O)Nc3ccccc3OC)no2)nnc1-c1cccs1,-0.0939
13,O=C(COc1ccc2ccccc2c1)N1c2ccccc2Sc2ccccc21,-0.195
14,COc1ccc2[nH]c(=O)c(CN(CCO)C(=O)c3cccs3)cc2c1,0.408
15,COc1ccc2c(c1)[nH]c1c(N3CCN(Cc4ccc5c(c4)OCO5)CC3)ncnc12,-0.61
16,CCCS(=O)(=O)N1CCCC(C(=O)NCCc2ccc(Cl)cc2)C1 (centres undefined),0.0651
17,COc1ccc(C(C)(C)C)cc1NC(=O)COC(=O)c1ncc(Cl)c(Cl)c1Cl,0.0425
18,CCCOc1ccc2oc(=O)c3c(c2c1)CCCN3C(=O)CN1CCN(c2ncccn2)CC1,-1.13
19,Clc1ccc(COc2ccccc2CNCc2cccnc2)cc1,-0.283
20,Cc1csc(C(C#N)C(=O)c2cc3ccccc3o2)n1 (centres undefined),-0.339
21,NC(=O)c1ccc(NC(=O)COC(=O)c2cccc(Oc3ccccc3)c2)cc1,-0.163
22,O=C(c1cccs1)N1CCc2c([nH]c3ccccc23)C1c1ccc(Cl)cc1 (centres undefined),-0.195

row,SMILES,z-score
1,CCCCn1c(C(C)NC(=O)COC)nc2ccccc21 (centres undefined),0.106
2,COc1cc(C(=O)OCC(=O)NC2CCS(=O)(=O)C2)ccc1OCc1c(C)noc1C (centres undefined),0.0931
3,CCOc1ccccc1NC(=O)COC(=O)c1cc(C(=O)OC)cc([N+](=O)[O-])c1,-0.184
4,Cc1ccc(C(C(=O)NC2CCCCC2)N2CCC3(CC2)OCCO3)cc1 (centres undefined),0.171
5,COc1ccc(CSc2nnc(CNS(C)(=O)=O)o2)cc1,0.953
6,O=C(NC(NC(=S)Nc1c(Cl)cccc1Cl)C(Cl)(Cl)Cl)c1cccc([N+](=O)[O-])c1 (centres undefined),-0.258
7,Cc1ccc(N/C(SCc2ccccc2C)=C(/C#N)C(=O)NCc2ccco2)cc1C,-0.331
8,O=C(NC1CCCCC1)c1cccc(S(=O)(=O)N2CCOCC2)c1,-0.092
9,COC(=O)c1ccccc1NC(=O)/C=N/O,-0.42
10,CCc1ccc(NC(=O)CSc2nnc(Cc3cccn3C)n2-c2ccc(OC)cc2)cc1,-0.16
11,COc1cc(NS(=O)(=O)c2ccc(NC(C)=O)cc2)ncn1,0.373
12,COc1ccccc1NC(=O)COc1ccc(C(=O)OCC(=O)N(C(C)C)C(C)C)cc1OC,-0.432
13,Cc1cc(=O)oc(C)c1C(=O)Nc1ccc2ncccc2c1,-0.12
14,O=C(NCc1ccccn1)c1cccc(NS(=O)(=O)c2cccc(F)c2)c1,-0.306
15,CN(C)CCOC(=O)Cc1ccc(Cl)cc1,0.164
16,CCOc1ccc(OCC)c(S(=O)(=O)N2CCCCC2C)c1 (centres undefined),-0.14
17,Cc1ccc(SCc2nc(-c3ccccc3)no2)cc1,0.242
18,Cc1onc(-c2ccccc2Cl)c1C(=O)NCc1ccc(N2CCCC2=O)cc1,0.231
19,O=C(Nn1c(=S)[nH]c2ccccc2c1=O)c1ccncc1,0.643
20,O=C(O)COc1c(-c2ccccc2)oc2ccccc2c1=O,-0.158
21,CN1CCN(c2nc(N3CCN(c4ccccc4)CC3)ncc2F)CC1,0.0781
22,O=C(NC(=S)NNC(=O)c1cccs1)c1ccc(Br)o1,active: 4.37

row,SMILES,z-score
1,Cc1cnc(C(=O)OCC(=O)NC2CCCCC2)cn1,0.866
2,C=CC#CC[N+]1(CC#Cc2ccccc2)CCOCC1,-0.316
3,CCOC(=O)C1C(=O)C(C(C)=O)C(=O)CC1CC(C)SCC (centres undefined),0.329
4,CC(C)(C)NC(=O)CSC(=Nc1ccc(F)cc1)NC#N,-0.227
5,CC(=O)NCC(=O)OCN1C(=O)c2ccccc2C1=O,1.22
6,Cc1ccc(S(=O)(=O)Nc2cccc(C(=O)Nc3cc(C)ccn3)c2)cc1,0.154
7,Cc1cccc(N(CC(=O)NC2CCCC2)C(=O)c2cc3cc4cccc(C)c4nc3s2)c1C,-0.282
8,O=C(CSc1nc2ccccc2o1)N1c2ccccc2Sc2ccc(Cl)cc21,-0.0608
9,O=C1CCc2cc(S(=O)(=O)NC(Cc3ccccc3)C(=O)NC3CCCCC3)ccc2N1 (centres undefined),0.068
10,Cc1c(O)ccc2c3c(c(=O)oc12)CCC(C)C3 (centres undefined),-0.81
11,CC1CC(C)CN(C(=O)Cn2c(SCC(=O)N3CCc4ccccc4C3)nc3ccccc32)C1 (centres undefined),-0.128
12,CCCNc1nc(C)nc2c1cnn2CCc1ccccc1,-0.187
13,CCCC1CCC(=NNC(=O)OC(C)(C)C)CC1 (centres undefined),-0.234
14,COc1ccc(CCN(C(=O)C(F)(F)F)C(C(=O)NC2CCCCC2)c2ccc(C)s2)cc1 (centres undefined),0.357
15,COc1ccc(OC)c(NC(=S)NCc2cccnc2)c1,-0.256
16,CN(c1ccc(C(=O)NC2CC2)cc1)S(=O)(=O)c1ccccc1,-0.391
17,O=S(=O)(NC1CCCCC1Nc1ccc(Cl)cc1)c1ccccc1 (centres undefined),-0.0667
18,Cc1cc(-c2n[nH]c(=S)n2Cc2ccccc2)cs1,0.453
19,CCOC(=O)c1ccc(N2C(=O)CC(C3CCCO3)C2=O)cc1 (centres undefined),-0.0255
20,O=C(COC(=O)Cc1cccc2ccccc12)Nc1ccccc1-c1ccccc1,-0.174
21,O=C(CSc1n[nH]c(=O)[nH]c1=O)N/N=C/c1ccccc1,0.0445
22,Cc1cc(C(=O)N/N=C/c2ccco2)c2ccccc2n1,0.0513

row,SMILES,z-score
1,NS(=O)(=O)c1ccc2nc(NC(=O)C3CCCO3)sc2c1 (centres undefined),2.74
2,COC(=O)c1ccccc1NC(=O)CCNC(=O)Cn1cnc2ccccc2c1=O,-0.113
3,Cc1nc(-c2cccnc2)sc1C(=O)Nc1ccc(C(F)(F)F)cc1,-0.151
4,COc1cc(/C=N/NC(=O)COc2c(C)cc([N+](=O)[O-])cc2C)ccc1OC(=O)c1ccccc1,-0.81
5,COC(=O)c1ccccc1NC(=O)COC(C)=O,-1.01
6,O=C(NCc1ccc2c(c1)OCO2)c1cc([N+](=O)[O-])ccc1N1CCCCC1,-0.364
7,CC(=O)Nc1cccc(Oc2ccc3c(c2)C(=O)N(CCC(=O)O)C3=O)c1,-0.328
8,COc1ccc(N2CCN(CC(=O)Nc3cc(C)on3)CC2)cc1,0.403
9,O=C(NCCCN1CCCC1=O)c1ccc(CNS(=O)(=O)c2ccc(F)cc2)cc1,-0.08
10,Cc1ccc(Cl)cc1N1CCN(C(=O)COc2ccc(S(=O)(=O)NC(C)C)cc2)CC1,0.944
11,CCOC(=O)N1CCN(C(=O)COc2ccc(S(=O)(=O)Nc3ccc(OCC)cc3)cc2)CC1,-0.616
12,COc1ccc(CCNC(=O)Cc2cc(OC)c(OC)cc2[N+](=O)[O-])cc1OC,-0.376
13,O=C(Nc1ccc(N2CCOCC2)cc1)c1ccncc1,-0.149
14,CC1=C(C(N)=O)C(c2ccccn2)n2nc(SCc3ccccc3Cl)nc2N1 (centres undefined),-1.44
15,CSc1nc(Cl)c(C#N)c(-c2ccc(C)cc2)n1,-0.547
16,O=C(c1ccco1)N1CCN(C(=O)C2(S(=O)(=O)c3ccc(Cl)cc3)CC2)CC1,0.0993
17,COc1cccc(C(=O)NC(=S)Nc2ccc(N3CCCC3)cc2)c1,-0.087
18,COc1cc(/C=C/C(=O)N2CCOCC2)ccc1OCc1ccccc1,-0.136
19,Cc1ccc(C(=O)N/N=C/C2=Cc3ccccc3OC2C)cc1 (centres undefined),active: 3.08
20,O=c1[nH]c2ccsc2c(=O)n1-c1ccc(F)cc1,-0.0454
21,Cc1cccc(NC(=S)NNC(=O)CCn2cc(C)cn2)c1,0.051
22,CCOc1ccccc1NC(=O)COn1nnc2ccccc21,-0.117

row,SMILES,z-score
1,CC1=C(C)[N+](=O)C2(O)CCCCC2(C)N1[O-] (centres undefined),0.0837
2,COc1ccc(/C=N/c2sc3c(c2C#N)CCN(Cc2ccccc2)C3)c(O)c1,0.318
3,O=C(CNc1ccccc1)c1ccc([N+](=O)[O-])cc1,-0.572
4,Cn1c(NCCCN2CCOCC2)nc2c1c(=O)n(Cc1ccc(Cl)cc1Cl)c(=O)n2C,-0.185
5,COc1ccc(OC)c(/C=N/N(C)c2ccccc2)c1,-0.415
6,CN(C)S(=O)(=O)c1ccc(C(=O)Oc2ccccc2)cc1,-0.199
7,Cc1c(/C=N/NC(=O)C(NC(=O)c2ccc3c(c2)OCO3)C(C)C)c2ccccc2n1C (centres undefined),0.000906
8,Cc1nc(Nc2ccccc2Cl)sc1C(=O)Nc1ccccc1,-0.241
9,CC(=O)N1CN(S(=O)(=O)c2ccc(C)cc2)CC1C (centres undefined),-0.352
10,Cc1nc(-c2ccccc2)sc1C(=O)CSc1ccccc1,-0.297
11,Cc1c(C(=O)O)[nH]c2c1C(=O)CC(c1ccccc1)C2 (centres undefined),-0.21
12,CNC(=S)N/N=C/c1ccccc1Cl,1.82
13,COc1cc(NC(=O)CCc2nc(-c3cccs3)no2)cc(OC)c1OC,0.311
14,COC(=O)c1ccc(C)c(NS(=O)(=O)c2ccc(NC(C)=O)cc2)c1,-0.131
15,O=C(c1ccccc1)c1nc[nH]c1C(=O)Nc1ccccc1,1.81
16,Cc1ccc(Cl)cc1N1CCN(C(=O)c2cccc3c(=O)c(C)c(-c4ccccc4)oc23)CC1,-1.24
17,CCOC(=O)c1ccc(NC(=O)C2(c3ccccc3)CCOCC2)cc1,-0.351
18,COC(=O)CSC1=C(C#N)C(=O)NC2(CCCCC2)S1,-0.388
19,CC(C)OC(=O)c1cccnc1SCc1cc(=O)n2ccccc2n1,-0.709
20,COC(=O)c1ccc(CSc2ncnc3c2sc2nc(N4CCOCC4)c4c(c23)CCCC4)o1,0.723
21,C/C(=N/O)c1cc(C(C)(C)C)c(O)c(C(C)(C)C)c1,-0.256
